Paper PMC6688997 (Nature Communications, 2019)
Read-outs that look alike come from different tables or passages of the source.

Experiments:
[1] = test system: JFCR-165 patient-derived cells; assay: CellTiter-Glo cell viability assay; assay type: cell-based, human; conditions: 72–120 h
[2] = test system: JFCR-168 patient-derived cells; assay: CellTiter-Glo cell viability assay; assay type: cell-based, human; conditions: 72–120 h
[3] = test system: HCC78xe3-SLC34A2-ROS1-WT xenograft; assay type: in vivo, mouse; conditions: DS6051b 50mg/kg, in mm³
[4] = test system: HCC78xe3-SLC34A2-ROS1-G2032R xenograft; assay type: in vivo, mouse; conditions: DS6051b 50mg/kg, in mm³
[5] = test system: MGH193-1B patient-derived cells; assay: CellTiter-Glo cell viability assay; conditions: 72–120 h

With C[C@@H](N)COc1ccc(-c2cnc3ccc(N[C@H](C)c4cccc(F)c4)nn23)cc1.O=C(O)CCCCC(=O)O [DS-6051b] as the compound, how does the “Sensitivity (cell viability)” value [1] read?
Its value is “sensitive”.

What about the “Sensitivity (cell viability)” value [2] of the same compound?
The value was “sensitive”.

What about the “Tumor volume LWW/2, Mean” value ([3]; day 0, group mean) of the same compound?
The value was 138.4.

And the “Tumor volume LWW/2, Mean” value ([3]; day 3, group mean)?
The value was 80.4.

What about the “Tumor volume LWW/2, Mean” value ([3]; day 6, group mean) of the same compound?
Its value is 46.1.

What about the “Tumor volume LWW/2, Mean” value ([3]; day 9, group mean) of the same compound?
Its value is 37.3.

What about the “Tumor volume LWW/2, Mean” value ([3]; day 14, group mean) of the same compound?
The value was 19.5.

And the “Tumor volume LWW/2, Mean” value ([3]; day 17, group mean)?
Its value is 22.2.

And the “Tumor volume LWW/2, Mean” value ([3]; day 21, group mean)?
Its value is 15.2.

What about the “Tumor volume LWW/2, Mean” value ([3]; day 25, group mean) of the same compound?
Its value is 10.4.

What about the “Tumor volume LWW/2, Mean” value ([3]; day 28, group mean) of the same compound?
The value was 6.6.

What about the “Tumor volume LWW/2, Mean” value ([3]; day 31, group mean) of the same compound?
Its value is 8.3.

What about the “Tumor volume LWW/2, Mean” value ([3]; day 35, group mean) of the same compound?
Its value is 8.2.

And the “Tumor volume LWW/2, Mean” value ([3]; day 38, group mean)?
Its value is 8.5.

What about the “Tumor volume LWW/2, Mean” value ([3]; day 43, group mean) of the same compound?
The value was 9.5.

And the “Tumor volume LWW/2, Mean” value ([3]; day 48, group mean)?
Its value is 4.0.

What about the “Tumor volume LWW/2, Mean” value ([3]; day 52, group mean) of the same compound?
Its value is 6.2.

What about the “Tumor volume LWW/2, Mean” value ([3]; day 55, group mean) of the same compound?
The value was 7.4.

What about the “Tumor volume LWW/2, Mean” value ([4]; day 0, group mean) of the same compound?
The value was 141.5.

What about the “Tumor volume LWW/2, Mean” value ([4]; day 3, group mean) of the same compound?
Its value is 113.0.

What about the “Tumor volume LWW/2, Mean” value ([4]; day 6, group mean) of the same compound?
Its value is 113.4.

And the “Tumor volume LWW/2, Mean” value ([4]; day 9, group mean)?
Its value is 93.0.

And the “Tumor volume LWW/2, Mean” value ([4]; day 14, group mean)?
The value was 73.9.

And the “Tumor volume LWW/2, Mean” value ([4]; day 17, group mean)?
Its value is 80.0.

What about the “Tumor volume LWW/2, Mean” value ([4]; day 21, group mean) of the same compound?
Its value is 97.0.

What about the “Tumor volume LWW/2, Mean” value ([4]; day 25, group mean) of the same compound?
The value was 137.7.

And the “Tumor volume LWW/2, Mean” value ([4]; day 28, group mean)?
The value was 153.3.

What about the “Tumor volume LWW/2, Mean” value ([4]; day 31, group mean) of the same compound?
Its value is 169.0.

What about the “Tumor volume LWW/2, Mean” value ([4]; day 35, group mean) of the same compound?
The value was 231.4.

And the “Tumor volume LWW/2, Mean” value ([4]; day 38, group mean)?
The value was 224.1.

And the “Tumor volume LWW/2, Mean” value ([4]; day 43, group mean)?
Its value is 291.9.

What about the “Tumor volume LWW/2, Mean” value ([4]; day 48, group mean) of the same compound?
The value was 260.1.

And the “Tumor volume LWW/2, Mean” value ([4]; day 52, group mean)?
The value was 339.1.

And the “Tumor volume LWW/2, Mean” value ([4]; day 55, group mean)?
The value was 309.8.

And the “Sensitivity (cell viability)” value [5]?
Its value is “sensitive”.

COc1cc(N2CCC(N3CCN(C)CC3)CC2)ccc1Nc1ncc(Cl)c(Nc2ccccc2P(C)(C)=O)n1 [brigatinib] was tested. Which “Sensitivity (cell viability)” value [1] did it give?
The value was “sensitive”.

And the “Sensitivity (cell viability)” value [2]?
Its value is “sensitive”.

And the “Sensitivity (cell viability)” value [5]?
The value was “sensitive”.

How did the “Sensitivity (cell viability)” value [1] turn out when COc1cc2nccc(Oc3ccc(NC(=O)C4(C(=O)Nc5ccc(F)cc5)CC4)cc3)c2cc1OC [cabozantinib] was run?
Its value is “sensitive”.

What about the “Sensitivity (cell viability)” value [2] of the same compound?
Its value is “sensitive”.

What about the “Sensitivity (cell viability)” value [5] of the same compound?
The value was “sensitive”.

Which “Sensitivity (cell viability)” value [1] does the source give for Cc1cc(Nc2ncc(Cl)c(Nc3ccccc3S(=O)(=O)C(C)C)n2)c(OC(C)C)cc1C1CCNCC1 [ceritinib] here?
The value was “sensitive”.

What about the “Sensitivity (cell viability)” value [2] of the same compound?
The value was “sensitive”.

What about the “Sensitivity (cell viability)” value [5] of the same compound?
The value was “sensitive”.

C[C@@H](Oc1cc(-c2cnn(C3CCNCC3)c2)cnc1N)c1c(Cl)ccc(F)c1Cl [crizotinib, reference compound] was tested. Which “Sensitivity (cell viability)” value [1] did it give?
The value was “sensitive”.

What about the “Sensitivity (cell viability)” value [2] of the same compound?
Its value is “sensitive”.

CN1CCN(c2ccc(C(=O)Nc3n[nH]c4ccc(Cc5cc(F)cc(F)c5)cc34)c(NC3CCOCC3)c2)CC1 [entrectinib] was tested. Which “Sensitivity (cell viability)” value [1] did it give?
The value was “sensitive”.

And the “Sensitivity (cell viability)” value [2]?
Its value is “sensitive”.

What about the “Sensitivity (cell viability)” value [5] of the same compound?
The value was “sensitive”.

How did the “Sensitivity (cell viability)” value [1] turn out when C[C@H]1Oc2cc(cnc2N)-c2c(nn(C)c2C#N)CN(C)C(=O)c2ccc(F)cc21 [lorlatinib] was run?
Its value is “sensitive”.

And the “Sensitivity (cell viability)” value [2]?
The value was “sensitive”.

What about the “Sensitivity (cell viability)” value [5] of the same compound?
The value was “sensitive”.
